Literature values as cited in article PMC11006913.
The list shows a part of the results.

How the values were obtained:
Conditions in all cases: PBM; conditions not shown; double strand, one strand shown; scale: upbm affinity estimate (log intensity, higher = more binding, comparable within an allelic series)
[1] = biological target: HOXD13 I297V (Homo sapiens) (UniProt P35453)
[2] = biological target: HOXD13 I322L (Homo sapiens) (UniProt P35453)
[3] = biological target: HOXD13 N298S (Homo sapiens) (UniProt P35453)
[4] = biological target: HOXD13 Q325K (Homo sapiens) (UniProt P35453)
[5] = biological target: HOXD13 Q325R (Homo sapiens) (UniProt P35453)
[6] = biological target: HOXD13 R306W (Homo sapiens) (UniProt P35453)
[7] = biological target: HOXD13 S316C (Homo sapiens) (UniProt P35453)
[8] = biological target: PROP1 R112Q (Homo sapiens) (UniProt O75360)
[9] = biological target: PROP1 R99Q (Homo sapiens) (UniProt O75360)
[10] = biological target: NKX2-5 K183E (Homo sapiens) (UniProt P52952)
[11] = biological target: NKX2-5 R161P (Homo sapiens) (UniProt P52952)
[12] = biological target: NKX2-5 R190C (Homo sapiens) (UniProt P52952)
ISX (Homo sapiens) = ISX (Homo sapiens) (UniProt Q2M1V0)
ISX R83Q (Homo sapiens) = ISX R83Q (Homo sapiens) (UniProt Q2M1V0)
[13] = biological target: PITX2 L100Q (Homo sapiens) (UniProt Q99697)
[14] = biological target: PITX2 R108H (Homo sapiens) (UniProt Q99697)
[15] = biological target: PITX2 R130W (Homo sapiens) (UniProt Q99697)
[16] = biological target: PITX2 T114P (Homo sapiens) (UniProt Q99697)

CAATAAAA [8-mer CAATAAAA]
binding signal [1]: 13 | binding signal [2]: 11.6 | binding signal [3]: 13.2 | binding signal [4]: 10.8 | binding signal [5]: 12.1 | binding signal [6]: 12.6 | binding signal [7]: 13

CGGCGGCA [8-mer CGGCGGCA]
binding signal [1]: 9.32 | binding signal [2]: 9.2 | binding signal [3]: 9.19 | binding signal [4]: 9.32 | binding signal [5]: 9.35 | binding signal [6]: 9.4 | binding signal [7]: 9.33 | binding signal [8]: 10.8 | binding signal [9]: 10.9

CCACCCGC [8-mer CCACCCGC]
binding signal [1]: 9.65 | binding signal [2]: 9.67 | binding signal [3]: 9.63 | binding signal [4]: 9.65 | binding signal [5]: 9.63 | binding signal [6]: 9.55 | binding signal [7]: 9.67 | binding signal [10]: 10 | binding signal [11]: 10 | binding signal [12]: 9.96

CCGAACGC [8-mer CCGAACGC]
binding signal [1]: 9.63 | binding signal [2]: 9.47 | binding signal [3]: 9.52 | binding signal [4]: 9.6 | binding signal [5]: 9.56 | binding signal [6]: 9.54 | binding signal [7]: 9.67

CGGAGGGC [8-mer CGGAGGGC]
binding signal [1]: 9.49 | binding signal [2]: 9.43 | binding signal [3]: 9.39 | binding signal [4]: 9.45 | binding signal [5]: 9.47 | binding signal [6]: 9.51 | binding signal [7]: 9.46

CCCTGGCC [8-mer CCCTGGCC]
binding signal [1]: 9.15 | binding signal [2]: 9.15 | binding signal [3]: 9.17 | binding signal [4]: 9.45 | binding signal [5]: 9.19 | binding signal [6]: 9.29 | binding signal [7]: 9.26 | binding signal (ISX (Homo sapiens)): 9.62 | binding signal (ISX R83Q (Homo sapiens)): 9.62 | binding signal [10]: 9.94 | binding signal [11]: 9.98 | binding signal [12]: 9.96

CTCCGCCA [8-mer CTCCGCCA]
binding signal [1]: 9.41 | binding signal [2]: 9.26 | binding signal [3]: 9.37 | binding signal [4]: 9.37 | binding signal [5]: 9.31 | binding signal [6]: 9.41 | binding signal [7]: 9.42

ATTGTTAA [8-mer ATTGTTAA]
binding signal [2]: 12

AGTTACGA [8-mer AGTTACGA]
binding signal [2]: 11.8

CCCTTTTA [8-mer CCCTTTTA]
binding signal [1]: 11 | binding signal [2]: 10.9 | binding signal [3]: 11.1 | binding signal [5]: 10.9

CTCGTAAG [8-mer CTCGTAAG]
binding signal [2]: 11.9

AGTAGTTA [8-mer AGTAGTTA]
binding signal [1]: 11.3 | binding signal [2]: 11.1 | binding signal [3]: 11.4 | binding signal [7]: 11.1

GGTAGTAA [8-mer GGTAGTAA]
binding signal [1]: 11.1 | binding signal [2]: 11 | binding signal [3]: 11.2 | binding signal [7]: 11

GATGGTTA [8-mer GATGGTTA]
binding signal [1]: 11 | binding signal [2]: 10.8 | binding signal [3]: 11 | binding signal [7]: 10.7

ATAATAAA [8-mer ATAATAAA]
binding signal [1]: 12.4 | binding signal [3]: 12.5 | binding signal [5]: 12.1 | binding signal [6]: 11.7 | binding signal [7]: 12.3

ATGTCTAA [8-mer ATGTCTAA]
binding signal [1]: 10.6 | binding signal [3]: 11 | binding signal [4]: 10.8 | binding signal [5]: 11.3 | binding signal [6]: 10.4 | binding signal [7]: 10.6

GGTCGTAA [8-mer GGTCGTAA]
binding signal [2]: 11.8

GTCACTAA [8-mer GTCACTAA]
binding signal [1]: 11 | binding signal [2]: 10.7 | binding signal [3]: 11.1 | binding signal [7]: 10.8

AGGTAGTA [8-mer AGGTAGTA]
binding signal [1]: 10.9 | binding signal [2]: 10.8 | binding signal [3]: 10.9 | binding signal [5]: 11.1 | binding signal [6]: 10.4 | binding signal [7]: 10.8

CGTAAACC [8-mer CGTAAACC]
binding signal [2]: 11.9

AGAACATA [8-mer AGAACATA]
binding signal [1]: 10.8 | binding signal [4]: 10.5 | binding signal [5]: 10.7 | binding signal [6]: 10.4 | binding signal [7]: 10.6

AATTTATA [8-mer AATTTATA]
binding signal [1]: 12.4 | binding signal [3]: 12.5 | binding signal [4]: 12.4 | binding signal [5]: 12.2 | binding signal [6]: 11.9 | binding signal [7]: 12.2

AGTTTACG [8-mer AGTTTACG]
binding signal [1]: 11.7 | binding signal [2]: 11.8 | binding signal [3]: 11.8 | binding signal [6]: 10.9 | binding signal [7]: 11.5

GCTGTAAA [8-mer GCTGTAAA]
binding signal [2]: 11.9

AATTATAT [8-mer AATTATAT]
binding signal [1]: 12.3 | binding signal [3]: 12.4 | binding signal [7]: 12.1 | binding signal [8]: 12.6 | binding signal [9]: 12

ACCTTTTA [8-mer ACCTTTTA]
binding signal [1]: 11.2 | binding signal [2]: 11 | binding signal [3]: 11.3 | binding signal [5]: 11 | binding signal [7]: 11.1

ACTAACAA [8-mer ACTAACAA]
binding signal [1]: 11.1 | binding signal [2]: 11 | binding signal [3]: 11.2 | binding signal [5]: 10.8 | binding signal [7]: 10.8

CCCGTTAA [8-mer CCCGTTAA]
binding signal [2]: 11.8

CAGTAAAC [8-mer CAGTAAAC]
binding signal [2]: 11.9

GTAAAACA [8-mer GTAAAACA]
binding signal [1]: 11.5 | binding signal [2]: 11.5 | binding signal [3]: 11.7 | binding signal [5]: 10.9 | binding signal [6]: 10.8 | binding signal [7]: 11.3

CATAAAAA [8-mer CATAAAAA]
binding signal [1]: 12.3 | binding signal [6]: 11.6

GTCGTTAA [8-mer GTCGTTAA]
binding signal [2]: 12.2

TCTATTAA [8-mer TCTATTAA]
binding signal [1]: 12.3 | binding signal [6]: 11.5

ATAAAACA [8-mer ATAAAACA]
binding signal [1]: 12.3 | binding signal [3]: 12.4 | binding signal [4]: 12.2 | binding signal [5]: 12.3 | binding signal [6]: 11.7 | binding signal [7]: 12.2

ATGTATCG [8-mer ATGTATCG]
binding signal [1]: 10.8 | binding signal [3]: 10.8 | binding signal [5]: 10.8 | binding signal [6]: 10.5 | binding signal [7]: 10.7

AATACTAA [8-mer AATACTAA]
binding signal [1]: 10.9 | binding signal [3]: 10.9 | binding signal [4]: 10.9 | binding signal [5]: 11.4 | binding signal [7]: 10.7

ATTACAAG [8-mer ATTACAAG]
binding signal [2]: 11.9

CTTGTAAC [8-mer CTTGTAAC]
binding signal [2]: 12

AATAACCC [8-mer AATAACCC]
binding signal [1]: 11.4 | binding signal [3]: 11.4 | binding signal [4]: 11 | binding signal [5]: 11 | binding signal [6]: 10.6 | binding signal [7]: 11.2

ATAGTCAA [8-mer ATAGTCAA]
binding signal [1]: 10.9 | binding signal [2]: 10.7 | binding signal [3]: 10.9 | binding signal [6]: 10.3 | binding signal [7]: 10.7

ATATAAAC [8-mer ATATAAAC]
binding signal [1]: 12.2 | binding signal [3]: 12.4 | binding signal [4]: 12.3 | binding signal [5]: 12.6 | binding signal [6]: 11.8 | binding signal [7]: 12.1

CACGTAAA [8-mer CACGTAAA]
binding signal [1]: 11.8 | binding signal [2]: 11.8 | binding signal [3]: 11.9 | binding signal [5]: 11 | binding signal [6]: 10.8 | binding signal [7]: 11.5

CTTATAAA [8-mer CTTATAAA]
binding signal [1]: 12.3 | binding signal [4]: 12.2 | binding signal [5]: 12.1 | binding signal [7]: 12.1

ATATTGGA [8-mer ATATTGGA]
binding signal [1]: 11.2 | binding signal [3]: 11.3 | binding signal [5]: 10.8 | binding signal [6]: 10.6 | binding signal [7]: 11 | binding signal (ISX (Homo sapiens)): 11.6

CTACTTTA [8-mer CTACTTTA]
binding signal [1]: 11 | binding signal [3]: 11.1 | binding signal [5]: 11

CGTAAAAG [8-mer CGTAAAAG]
binding signal [2]: 11.9

ATCGTAAC [8-mer ATCGTAAC]
binding signal [1]: 11.4 | binding signal [2]: 11.7 | binding signal [3]: 11.6 | binding signal [7]: 11.2

CATAAATC [8-mer CATAAATC]
binding signal [6]: 11.5

TATTAAAA [8-mer TATTAAAA]
binding signal [6]: 11.7

GATTTATA [8-mer GATTTATA]
binding signal [4]: 12.2 | binding signal [5]: 12.1 | binding signal [6]: 11.5

CTTAATCC [8-mer CTTAATCC]
binding signal [4]: 12 | binding signal [13]: 11.6 | binding signal [14]: 9.86 | binding signal [15]: 8.63 | binding signal [16]: 10.4

GATTATCC [8-mer GATTATCC]
binding signal [4]: 11.8

TGTATAAA [8-mer TGTATAAA]
binding signal [4]: 12.6 | binding signal [5]: 12.7

CTTTATAC [8-mer CTTTATAC]
binding signal [4]: 12.8 | binding signal [5]: 12.4
